The list shows a part of the results. Rule as the data show it: active = 3.2 or more and inactive = the rest. Only a few entries rise above the background.
molecular target: SHP2 C-SH2 domain E139D; test: enrichment score (SH2-bound / input frequency) (ratio); bacterial display of known human phosphotyrosine sites (pTyr-Var adds point mutants) read by sequencing; higher = stronger binding; tyrosines were phosphorylated by kinases first; details: peptide library: pTyr-Var
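Also: displayed peptides selected on beads carrying the immobilized SH2 domain, with library peptides lacking any tyrosine serving as negative controls.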

Enrichment score, inactive:
DDPRRYQKYGY [OAS1_Y362] 0.681
DDPRTYQKFGF [OAS1_Y362_R361T_YF] 0.782
SLNAVYPKAGS [OAS3_Y376_R378K] 0.737
SLNAVYPRAGR [OAS3_Y376_S381R] 0.269
ARKWGYTVKGI [OAT_Y158] 0.524
EREYKYGAHNY [OAT_Y50] 0.564
EREFKYDAHNF [OAT_Y50_G51D_YF] 0.664
EREYKYGAHKY [OAT_Y50_N54K] 0.843
EREFKYGAHKF [OAT_Y50_N54K_YF] 0.965
YGAHKYHPLPV [OAT_Y55_N54K] 3.08

molecular target: SHP2 C-SH2 domain wild-type; test: as above; details: peptide library: pTyr-Var

Enrichment score, inactive:
DDPRRYQKYGY [OAS1_Y362] 0.673
DDPRTYQKFGF [OAS1_Y362_R361T_YF] 0.655
SLNAVYPKAGS [OAS3_Y376_R378K] 0.639
SLNAVYPRAGR [OAS3_Y376_S381R] 0.293
ARKWGYTVKGI [OAT_Y158] 0.443
EREYKYGAHNY [OAT_Y50] 0.712
EREFKYDAHNF [OAT_Y50_G51D_YF] 0.581
EREYKYGAHKY [OAT_Y50_N54K] 0.834
EREFKYGAHKF [OAT_Y50_N54K_YF] 0.827
YGAHKYHPLPV [OAT_Y55_N54K] 2.55

molecular target: SHP2 N-SH2 domain L43F; test: as above; details: peptide library: pTyr-Var

Enrichment score, inactive:
DDPRRYQKYGY [OAS1_Y362] 0.665
DDPRTYQKFGF [OAS1_Y362_R361T_YF] 0.632
SLNAVYPKAGS [OAS3_Y376_R378K] 0.622
SLNAVYPRAGR [OAS3_Y376_S381R] 0.336
ARKWGYTVKGI [OAT_Y158] 0.488
EREYKYGAHNY [OAT_Y50] 0.347
EREFKYDAHNF [OAT_Y50_G51D_YF] 0.657
EREYKYGAHKY [OAT_Y50_N54K] 0.917
EREFKYGAHKF [OAT_Y50_N54K_YF] 0.788
YGAHKYHPLPV [OAT_Y55_N54K] 2.76

molecular target: SHP2 N-SH2 domain T42A; test: as above; details: peptide library: pTyr-Var

Enrichment score, inactive:
DDPRRYQKYGY [OAS1_Y362] 0.646
DDPRTYQKFGF [OAS1_Y362_R361T_YF] 0.596
SLNAVYPKAGS [OAS3_Y376_R378K] 0.714
SLNAVYPRAGR [OAS3_Y376_S381R] 0.257
ARKWGYTVKGI [OAT_Y158] 0.533
EREYKYGAHNY [OAT_Y50] 0.587
EREFKYDAHNF [OAT_Y50_G51D_YF] 0.69
EREYKYGAHKY [OAT_Y50_N54K] 0.865
EREFKYGAHKF [OAT_Y50_N54K_YF] 0.903
YGAHKYHPLPV [OAT_Y55_N54K] 2.14

molecular target: SHP2 N-SH2 domain T52S; test: as above; details: peptide library: pTyr-Var

Enrichment score, inactive:
DDPRRYQKYGY [OAS1_Y362] 0.756
DDPRTYQKFGF [OAS1_Y362_R361T_YF] 0.689
SLNAVYPKAGS [OAS3_Y376_R378K] 0.702
SLNAVYPRAGR [OAS3_Y376_S381R] 0.289
ARKWGYTVKGI [OAT_Y158] 0.626
EREYKYGAHNY [OAT_Y50] 0.482
EREFKYDAHNF [OAT_Y50_G51D_YF] 0.721
EREYKYGAHKY [OAT_Y50_N54K] 0.82
EREFKYGAHKF [OAT_Y50_N54K_YF] 0.805
YGAHKYHPLPV [OAT_Y55_N54K] 2.28

molecular target: SHP2 N-SH2 domain wild-type; test: as above; details: peptide library: pTyr-Var

Enrichment score, active:
YGAHKYHPLPV [OAT_Y55_N54K] 3.4

Enrichment score, inactive:
DDPRRYQKYGY [OAS1_Y362] 0.928
DDPRTYQKFGF [OAS1_Y362_R361T_YF] 0.795
SLNAVYPKAGS [OAS3_Y376_R378K] 0.658
SLNAVYPRAGR [OAS3_Y376_S381R] 0.286
ARKWGYTVKGI [OAT_Y158] 0.446
EREYKYGAHNY [OAT_Y50] 0.525
EREFKYDAHNF [OAT_Y50_G51D_YF] 0.805
EREYKYGAHKY [OAT_Y50_N54K] 1.01
EREFKYGAHKF [OAT_Y50_N54K_YF] 0.93
